# PubChem BioAssay AID1462 (Emory University Molecular Libraries Screening Center, 2008)
# Not every entry of the source has a single result; some have several. They are shown here; other results are not. There may be further records. Values that stand side by side repeat one measurement (runs, samples, wells, individuals or studies). A tag in brackets gives the origin of a value. A, B and so on number the origins entry by entry.
# Target: Protein GrpE (Escherichia coli (strain K12)) (UniProt P09372)
# Experiment: inhibition of DnaK/DnaJ/GrpE luciferase refolding – biochemical, luminescence, E. coli K12, dose response (AID 1462)
# Conditions: DnaK/DnaJ/GrpE denatured luciferase refolding
# Chain of UniProt P09372 (P09372 whole entry, looked up): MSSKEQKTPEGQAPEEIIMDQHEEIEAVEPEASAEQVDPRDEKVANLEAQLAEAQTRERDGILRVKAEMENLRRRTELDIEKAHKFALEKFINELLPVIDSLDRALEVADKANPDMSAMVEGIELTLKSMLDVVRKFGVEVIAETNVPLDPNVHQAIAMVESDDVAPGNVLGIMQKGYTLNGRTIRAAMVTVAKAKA
compound,measurement,value
[N-]=[N+]=Nc1ccc(C(=O)CSC[C@H](NC(=O)CC[C@H](N)C(=O)O)C(=O)NCC(=O)O)cc1,IC50,1.62 µM [sample A] and inactive [sample B]
